Test results published in PubChem BioAssay AID686970 (National Center for Advancing Translational Sciences (NCATS), 2013).
Screen size: about 360,000 compounds; about 6,000 (1.7%) were called active. Inconclusive means that the source gave no clear call. Such entries were picked first, then a sample of the others. The call rests on the fitted dose curve; in most records, active means well fitted cell-killing curve with a large enough effect; inconclusive means small, poorly fitted or top-dose-only effect, or effect the other way; inactive means flat fitted curve, though single readings scatter. Potencies of inconclusive entries are left out as doubtful fits.

assay: qHTS for induction of synthetic lethality in tumor cells producing 2HG: qHTS for the HT-1080-NT fibrosarcoma cell line; conditions: HT-1080-NT fibrosarcoma viability, CellTiter-Glo ATP luminescence, 48 h; activity, negative = less viability: at 46.1 µM (top of the series) unless noted;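 further: NT is the 2HG producing partner of a matched IDH1 knockdown line; nearly all actives have a fitted effect of over 55% in size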;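 on activity, negative = less viability: 0% = DMSO-treated cells and -100% = media-only wells without cells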
Method in brief: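 Read-out is CellTiter-Glo luminescence after 10 minutes at room temperature, following 48 hours' compound treatment of HT-1080-NT cells (750 cells/well, RPMI, 5% FBS, 37 degrees C).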
Potency means the concentration at half of the fitted maximal effect; tags describe the fitted curve by direction and shape.

Structure (SMILES) | Potency | activity, negative = less viability
COC(=O)c1nn(-c2ccccc2)nc1-c1nn(-c2ccccc2)nc1C(=O)OC | inactive | –
Cc1ccsc1/C=N/NC(=O)c1sccc1C | inconclusive [cytotoxic, single point] | –
c1ccc(CN=C(NCc2ccccc2)NCc2ccccc2)cc1 | – | inconclusive: -30.6% [cytotoxic]
COc1ccccc1CNC(=O)C(=O)NCC1CCCN1S(=O)(=O)c1cccs1 (stereo not given) | inactive | –
COc1cc(C(=O)NC(C)c2cnn(-c3ccccc3C)c2C)cc(OC)c1OC (stereo not given) | inactive | –
Cc1ccc2c(c1)N(CC(=O)N1CCCCC1)C(=O)CO2 | inactive | –
COc1cc(CN2CCC(C(=O)NC(c3ccc(F)cc3)c3ccc4ccccc4n3)CC2)cc(OC)c1 (stereo not given) | active: 2.31 µM | –
CCC(C)n1cnc2c(c1=O)c1nc3ccccc3nc1n2Cc1ccc(OC)cc1 (stereo not given) | inconclusive [rising, single point] | –
Cc1cc(NCc2ccccn2)n2nc(C)c(-c3ccc(Cl)cc3)c2n1 | inconclusive [cytotoxic, partial curve] | –
COc1ccc(-c2csc3nc(C)nc(N4CCCCC4)c23)cc1OC | active: 16.4 µM | –
O=C(C1CCCCC1)N1CCC2CC1c1cc(-c3ccc4c(c3)OCO4)ccc12 (stereo not given) | inconclusive [cytotoxic, single point] | –
COc1cc(NC(=O)C2CCCN2C(=O)C2CCC(C)CC2)cc(OC)c1OC (stereo not given) | inactive | –
COc1cccc(C2C(C(=O)c3cc4ccccc4o3)=C(O)C(=O)N2c2cc(C)on2)c1 (stereo not given) | inconclusive [cytotoxic, single point] | –
CCC(ONc1ccccc1C(F)(F)F)(C(=O)NN(C)C)c1ccccc1 (stereo not given) | inactive | –
O=C(CSc1nc2ncc(Br)cc2[nH]1)Nc1ccccc1-c1ccccc1 | inconclusive [cytotoxic, single point] | –
CCNC(=S)Nc1ccc2c(c1)c(=O)n(C)n2CC=C(C)C | inconclusive [rising, single point] | –
Cc1c(NC(=O)Nc2ccc(Cl)c(Cl)c2)sc(=S)n1C | inconclusive [cytotoxic, single point] | –
CCn1c2ccccc2c2cc(NS(=O)(=O)c3ccc(C)cc3)ccc21 | inconclusive [cytotoxic, single point] | –
O=C(NNc1ccc(F)cc1F)C1CCC1 | inconclusive [cytotoxic, full curve] | –
COc1ccc(NC(=O)COC(=O)c2c3c(nc4ccccc24)CCCC3)cc1Cl | inconclusive [cytotoxic, single point] | –
